# Laboratory results from the supplement of paper PMC3334620.
# Whole data set: some 33,000 sequences, median “E-score (-0.5 to 0.5)” near -0.021, cut for the highest 2% near 0.32. Some of the results follow.
# Target: T1, Zap1 (UniProt P47043)
# T1 sequence: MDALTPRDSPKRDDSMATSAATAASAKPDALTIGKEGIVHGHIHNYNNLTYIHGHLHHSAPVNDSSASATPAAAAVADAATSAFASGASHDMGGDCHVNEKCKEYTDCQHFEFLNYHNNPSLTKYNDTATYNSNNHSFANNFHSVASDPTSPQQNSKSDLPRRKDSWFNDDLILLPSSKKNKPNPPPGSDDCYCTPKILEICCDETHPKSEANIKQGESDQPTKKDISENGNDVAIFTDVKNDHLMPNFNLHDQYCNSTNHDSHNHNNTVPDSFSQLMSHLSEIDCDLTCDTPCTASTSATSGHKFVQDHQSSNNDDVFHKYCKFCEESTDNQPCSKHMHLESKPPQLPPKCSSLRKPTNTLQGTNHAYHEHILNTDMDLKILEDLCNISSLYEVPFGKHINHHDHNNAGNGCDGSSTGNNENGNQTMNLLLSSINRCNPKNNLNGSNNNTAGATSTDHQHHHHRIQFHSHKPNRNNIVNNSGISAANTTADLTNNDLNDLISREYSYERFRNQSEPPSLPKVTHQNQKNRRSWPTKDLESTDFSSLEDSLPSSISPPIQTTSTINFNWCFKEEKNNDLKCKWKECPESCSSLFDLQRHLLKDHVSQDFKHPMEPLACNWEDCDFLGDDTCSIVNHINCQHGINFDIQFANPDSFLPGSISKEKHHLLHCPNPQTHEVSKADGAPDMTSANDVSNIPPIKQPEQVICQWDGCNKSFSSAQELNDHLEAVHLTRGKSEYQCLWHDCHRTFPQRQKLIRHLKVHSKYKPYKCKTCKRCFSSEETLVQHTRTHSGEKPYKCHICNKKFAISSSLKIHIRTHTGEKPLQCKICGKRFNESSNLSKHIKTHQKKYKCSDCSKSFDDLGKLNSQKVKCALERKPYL
# Assay: PBM E-score (8-mer binding enrichment) (E-score (-0.5 to 0.5)); higher = stronger / more preferred TF binding; most listed sequences are background and not binding sites
# Conditions: protein concentration: 200 nM; construct: GST-full length
# Procedure, shortened: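 Bound GST-tagged yeast transcription factors, applied at about 100-200 nM to double-stranded universal all-10-mer Agilent arrays, were detected with fluorescent anti-GST. Scans were normalised with masliner. A modified Wilcoxon-Mann-Whitney statistic, the E-score, was assigned to each ungapped eight-base word pooled with its reverse complement by the Universal PBM Analysis Suite.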
row,Sequence,PBM E-score
1,GGATGTGA,0.0688
2,GCAACCGA,0.0724
3,AGAGTTAA,-0.086
4,CGGTCGGC,-0.122
5,AACGAGGA,-0.0212
6,GAACCCGC,0.156
7,GGAATTCC,-0.122
8,CGAAGTTC,-0.112
9,AACTTGCC,-0.165
10,AACCCGTG,0.0714
11,GAACTCGA,-0.0167
12,CACCAATG,0.0461
13,AGAAAAGA,-0.16
14,AGAGTCGG,-0.162
15,TCTACGCA,-0.159
16,GCCGAATA,-0.0383
17,GCACTTAA,0.0398
18,AAACGGAT,0.0565
19,ACCTGACT,0.143
20,ATTGCTCG,-0.229
21,CTTTCAAA,0.18
22,CCGTCTAC,-0.0898
23,CACGCCTC,-0.037
24,CCGAGGCA,-0.187
25,CCATGCGC,-0.243

row,Sequence,PBM E-score
1,AATTGGAC,0.214
2,AGGACCCA,0.00285
3,ACGCAGTC,-0.22
4,GGCTACGA,-0.023
5,CATCATCC,-0.216
6,CCTAGTAA,0.211
7,AATGTACA,0.109
8,AACTATAG,0.049
9,CAGAATCA,0.092
10,GGTGCACC,-0.0818
11,CTCGACCA,-0.0557
12,CTTTCTGC,0.0709
13,GTTCTTAA,0.0134
14,CATCGGTA,-0.0262
15,CTTAATCC,-0.131
16,GCAGTCCC,-0.104
17,GGGGTGAA,0.0494
18,ACGTACAT,0.0468
19,ATTGGTGG,0.0796
20,GTCATAGA,0.0722
21,CCGTGAAG,-0.0542
22,CTAGTTCC,0.022
23,CTCCAAAC,0.0502
24,CTCACCTA,0.133
25,CACGTTTA,-0.0258

row,Sequence,PBM E-score
1,GGTGTGCA,-0.0367
2,GTGAACCA,0.0479
3,TACTCCTA,-0.112
4,AGTAGGTC,-0.107
5,CCAGGTGC,0.0122
6,AGGTCCCA,-7e-05
7,CGGGGGAA,-0.168
8,AGTAGGAA,-0.163
9,AGCTTAGG,-0.11
10,CCGGTCCA,-0.201
11,CAGGTCCG,0.00563
12,ACCTAGAC,-0.0183
13,AGAACTGC,-0.239
14,AGATCACG,-0.00601
15,GACAGTTA,0.00556
16,TCCGCGAA,0.05
17,AAATAAAG,0.2
18,ATCACGAA,0.101
19,CGACTAAA,-0.0228
20,AGCACAGG,-0.0671
21,TCACTAAA,0.169
22,AAGACAGG,0.00578
23,ACCTCGAT,0.245
24,GAGAGTCC,-0.283
25,CTTTATGA,0.0463

row,Sequence,PBM E-score
1,AATTGTAG,0.0991
2,CCGCGAAG,0.122
3,AAAAGCGG,-0.0123
4,AGTGTCCA,0.172
5,CGACGCCA,-0.0251
6,ACGGAAGT,-0.128
7,CGGATGTC,0.149
8,ACATCAGG,-0.0455
9,CCGTCACC,0.203
10,AGAGGGCT,-0.237
11,ATGCCATA,-0.111
12,AACGTTCT,0.0697
13,ATTTAGGG,0.141
14,ACGCATTA,0.12
15,AGGATACT,-0.165
16,AGAATAGA,-0.0048
17,ACCAGCAT,0.0571
18,TCAGTTCA,-0.0962
19,ATTGTTTG,0.115
20,AACCCTGT,0.419
21,GTGTGAAC,-0.0337
22,TGGGCACA,-0.0634
23,ATGGGCAA,-0.0488
24,ACTTGCAA,0.147
25,AAGGTAAC,0.432

row,Sequence,PBM E-score
1,AGCCCTTG,-0.0802
2,GATTGCTA,-0.162
3,GGGAGAAC,-0.0658
4,TAGATCGA,-0.154
5,AAAAAAGC,0.0685
6,CCGATGGC,-0.168
7,CACTATCC,-0.0967
8,GATCGGCA,-0.288
9,TCGACAGA,-0.0777
10,CGCGACCC,0.299
11,TGCTAAAA,0.101
12,CAATTCTG,-0.217
13,GCTGAATA,0.0722
14,AATGGTCA,0.303
15,ACAAAAAT,0.234
16,AACACCAT,0.0808
17,ATCTTAGC,-0.152
18,AGAAGTGA,-0.0659
19,GCATTAAA,0.103
20,AACGCAAA,0.0634
21,ATAACGCG,0.0626
22,CGGCGTAC,-0.249
23,ACTACTCG,0.0619
24,GATAGCGC,-0.175
25,AGATGGCC,0.122

row,Sequence,PBM E-score
1,CCGAAGGC,-0.109
2,GGATGAAA,0.0693
3,CATGGAAC,0.0818
4,CTTCTAGC,-0.243
5,CCACTGCC,-0.129
6,CTCAAGAA,0.0854
7,AAGCCGCC,-0.381
8,ACTAAGGG,0.156
9,AGAGTACC,0.191
10,AGCAGTTA,0.0176
11,CTTCTCTA,-0.174
12,AATACCTC,0.296
13,CATAGTCC,-0.0604
14,TAATTTAA,0.183
15,GATCTGCA,-0.162
16,AGAACCAT,0.184
17,ACGCAAGC,-0.0912
18,TCTTCTAA,0.0973
19,ATGATCAC,0.172
20,GGTCATTA,0.321
21,AACATATT,0.0352
22,ACCCGCAG,0.225
23,AAACCTAC,0.194
24,CACCGTGA,0.0105
25,ACGCCGCT,-0.0905

row,Sequence,PBM E-score
1,CCCATGGA,0.208
2,CATTGAAA,0.174
3,GCCGCTAA,0.152
4,ATTCATGG,0.0815
5,AGCTGTAC,-0.151
6,CAATTCTA,0.11
7,ACCTGCAA,0.057
8,ATACATGA,-0.0713
9,CGCCAAGA,-0.128
10,AATAGGTA,0.314
11,AAGTTCTA,-0.0519
12,CGACCTTA,0.207
13,AGATGTGC,-0.213
14,AAAACCAT,0.283
15,CGGTGGCA,-0.312
16,TTATTGAA,0.158
17,GCACCACA,-0.153
18,TAACGAGA,-0.0403
19,AGCACCAG,-0.0624
20,CCGCCTCC,-0.252
21,ACGCCAGG,0.019
22,GGAATGCC,-0.00306
